Laboratory results published in PubChem BioAssay AID1508624 (National Center for Advancing Translational Sciences (NCATS), 2021).
In all, about 48,000 compounds went through this assay and about 120 (0.25%) were called active. Roughly 4% stayed inconclusive and do not appear here. Calls follow the shape of the dose curve; as a rule, active = well fitted activation curve with a large enough effect; inconclusive = small, poorly fitted or top-dose-only effect, or another doubt; inactive = no such curve, though single readings can be large or run the other way. Some of the results follow.

Assay: Primary qHTS for Identification of Small Molecule Activators of Huntingtin-Antisense Promoter Activity; also: nearly all actives have a fitted effect of over 55% in size
Settings: HEK293 HTT-AS promoter firefly luciferase reporter (activity 0% = vehicle and -100% = no light), 24 h; series mostly up to 57.5 µM; activity change, positive = activation: at the top concentration
In short: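 Luminescence was read after Dual-Glo reagent and a 10 min room-temperature incubation. Values were normalized to vehicle (0% activity) and zero RLU (-100% activity). Reporter HEK293 cells had been exposed to compounds (up to 57.5 uM final) for 24 h.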

Activity change, positive = activation, inactive:
Cn1cnc(S(=O)(=O)N2CCC(C(=O)NCc3ccccc3Cl)CC2)c1 -2%, CCN(c1ccccc1)c1nnc(NC(=O)Nc2ccc(Br)cc2)s1 15.2%, Cc1ncc([N+](=O)[O-])n1CCO, Cc1ccc(C(=O)CC2(O)C(=O)N(Cc3ccccc3F)c3ccccc32)cc1 (stereo not drawn) -33%, COc1cccc(NC(=O)CSc2nc3ccc(NC(=O)c4cccs4)cc3s2)c1 -14.8%, CCOC(=O)c1c(NC(=O)/C=C/c2ccc(C(C)C)cc2)sc2c1CCC2 -13.5%, Cc1cc(C)cc(NC(=O)CN(c2cc(C(F)(F)F)ccc2Cl)S(=O)(=O)c2ccccc2)c1 -26.1%, O=C(CCS(=O)(=O)c1nc(-c2cccs2)cc(C(F)(F)F)n1)Nc1ccc(OC(F)(F)F)cc1 -19.2%, COC(=O)c1ccccc1NC(=O)C1=CC(c2ccc(C)cc2)=NS(=O)(=O)N1C -22.7%, COc1ccc(C2c3c(oc4ccccc4c3=O)C(=O)N2Cc2ccc3c(c2)OCO3)cc1 (stereo not drawn) -16.5%, COc1ccc(OC)c(NC(=O)c2cc3c(n(-c4ccc(Cl)cc4)c2=O)CC(C)(C)CC3=O)c1 -17.1%, O=C(CN1CCN(Cc2ccc(F)cc2)C1=O)NCc1ccccc1Cl -1.11%, COc1cccc(-c2nn(C)c3sc(C(=O)NCc4cc(OC)ccc4OC)cc23)c1 -22.8%, CCN(CC)CCSC(=O)C(c1ccccc1)c1ccccc1 2.33%, O=C(Cn1c(SCc2cccc(F)c2)nc2cccnc21)Nc1ccc(F)c(Cl)c1 -14.5%, COc1ccccc1NC(c1ccc(Cl)cc1)c1nnc(-c2cccc(F)c2)o1 (stereo not drawn) -23.2%, CC(=O)c1ccc(NC(=O)CCc2c(C)nc3c(c(C)nn3-c3ccc(C)cc3)c2C)cc1 25.7%, CC(C)(C)c1ccc(Cn2c(Cc3ccccc3)nc3ccccc32)cc1 -27.5%, CCOc1ccc(-c2nonc2NC(=O)c2oc3ccc(F)cc3c2C)cc1 -39.4%, Cc1nn2c(=O)cc(CN(C)c3ccccc3)nc2s1 -8.77%, O=C(COc1ccccc1Cl)Nc1cc(-c2ccccc2F)nn1-c1ccccc1 2.84%, Cn1nc(C(=O)N2CCN(c3ccc(Cl)cc3)CC2)c2c1-c1ccccc1SC2 1.01%, Cc1ccc(NC(=O)Cn2nnnc2-c2ccccc2N)cc1 -4.38%, O=c1c2cc3c(cc2nc2sc(Nc4ccc(F)cc4F)nn12)OCO3 36.1%, O=C(C1CCCN(S(=O)(=O)c2cccs2)C1)N1CCN(c2cccc(Cl)c2)CC1 (stereo not drawn) -32.7%, Cc1ccc(C)c(N2CCN(c3ncnc4c3nc3n4CCCCC3)CC2)c1 -23.2%, Cn1c(=O)c2nc(SCC(=O)Nc3cc(Cl)ccc3Cl)n(C)c2n(C)c1=O 2.63%, c1ccc(CNc2nc3ccccc3c3nc(-c4ccccc4)nn23)cc1 -2.59%, NC(=O)CSc1nc2c(oc3ccccc32)c(=O)n1-c1ccccc1F -13.8%, COc1cccc(CNC(=O)CSc2ccc(-c3sc(-c4ccccc4)nc3C)nn2)c1 -25.7%, COc1ccc(Cl)cc1NC(=O)N1CCC(CN2CCc3ccccc3C2)CC1 -17.4%, CCOc1ccc(C(=O)NCC(c2ccco2)S(=O)(=O)c2ccc(C)cc2)cc1 (stereo not drawn) 5.41%, CCN1c2ccccc2-n2cccc2C12CCN(C(=O)Nc1ccccc1C(F)(F)F)CC2 -9.79%, C#CCN(C)Cc1ccccc1 -2.92%, CCOc1ccc(OCC)c(NC(=O)C2CCCN(S(=O)(=O)c3ccc4c(c3)oc(=O)n4C)C2)c1 (stereo not drawn) -4.76%, CCOc1ccc(CNC(=O)Cn2c(=O)c3cccn3c3ccc(F)cc32)cc1 -11.4%, Cc1cccc(-c2nc(SCCCOc3ccccc3Cl)n3[nH]c(=O)cc3n2)c1 6.88%, CC(=O)Nc1ccc(Nc2ncnc3c2c(-c2ccccc2)cn3-c2ccccc2)cc1 -32.6%, Cc1cc(C)cc(-n2c(SCC(=O)N3CCc4ccccc43)nc3c([nH]c4ccccc43)c2=O)c1 -21.2%, O=C(Nc1ccc(F)c(Cl)c1)N1CCN(C(=O)c2nsc3ccccc23)CC1 -25.3%, CCn1c(C(=O)N2CCC(C(=O)N3CCN(c4cccc(C)c4C)CC3)CC2)cc2sccc21 -51.3%, CCOc1ccc2nc(N3CCN(C(=O)CS(=O)(=O)c4ccc(F)cc4)CC3)sc2c1 8.49%, COC(=O)c1c(NC(=O)c2ccc(S(=O)(=O)N3CCCC(C)C3)cc2)sc2c1CCN(C(C)C)C2 (stereo not drawn) -32%, Cc1ccc(Cl)c2sc(N3CCN(C(=O)C4CC4)CC3)nc12 -18.6%, CC(C)c1ccc(NC(=O)CSc2ncc3c(n2)-c2ccccc2N(C)S3(=O)=O)cc1 -14.4%, CSc1ccc(CNCc2c(C(=O)O)c(C)n(Cc3ccc(F)cc3Cl)c2C)cc1 -15.7%, Cc1ccccc1CNC(=O)c1c(C)oc2c1C1=NCCN1C=N2 -4.7%, Cc1ccccc1Cn1cc(S(=O)(=O)c2ccc(Cl)cc2)c(=O)c2cc3c(cc21)OCO3 -5.04%, Cc1c(NC(=O)c2nc3ccccc3n(C)c2=O)cccc1[N+](=O)[O-] 12.7%, COc1cccc(N2CCN(C(=O)C3CCCN(S(=O)(=O)c4ccc(Br)s4)C3)CC2)c1 (stereo not drawn) -37%, Cc1ccc(NC(=O)c2ccc(NC(=O)N3CCSc4ncccc43)cc2)cc1Cl -50.8%, CCc1ccc(-n2nc3cc(C)c(NC(=O)c4cc(Cl)ccc4OC)cc3n2)cc1 -0.66%, O=C(Cn1cc(S(=O)(=O)Cc2ccc(F)cc2)c2ccccc21)NCCc1ccccc1 -35.3%, COc1ccc(NS(=O)(=O)c2cc3[nH]c(=O)c(=O)[nH]c3cc2C)cc1OC -4.98%, Cc1ccc2c(=O)cc(C(=O)Nc3sc4c(c3C(=O)NCc3ccco3)CCC4)oc2c1C 1.35%, COc1ccc(OCCn2c(C3CC(=O)N(c4ccc(F)cc4)C3)nc3ccccc32)cc1 (stereo not drawn) -38%, COc1ccc(Nc2cc(C(=O)NCCc3ccccc3)c3ccccc3n2)cc1OC -5.04%, CCCN(C(=O)Cn1ncc2c(=O)oc3ccccc3c21)c1cccc(C)c1 -12.8%, Cc1ccc(CNC(=O)Cn2ncc3c(C)n(Cc4ccc(Cl)cc4)c(C)c3c2=O)cc1 -5.4%, CCC(C)NC(=O)Cn1c(=O)n(Cc2ccc(C(=O)NCCCOC)cc2)c(=O)c2ccccc21 (stereo not drawn) -11%, Cc1ccc(NC(=O)c2c(N3CCCC3=O)c3cc(C)ccc3n2C)c(C)c1 -1.9%, CCCCC12CN3CC(C)(CN(C1)C3c1cc(Br)ccc1O)C2=O (stereo not drawn) -6.36%, CS(=O)(=O)c1ccc2nc(NC(=O)CS(=O)(=O)c3ccc(Cl)cc3)sc2c1 -11.2%, CCOC(=O)CNC(=O)Nc1cc(C(=O)NCc2cccc(F)c2)ccc1N1CCCC1 7.23%, Cc1ccc(-c2nc3scc(CCNC(=O)c4cccc(Br)c4)n3n2)cc1 -28.6%, COc1ccccc1NC(=O)C1CCCN(c2nnc(C)c3c(C)n(-c4ccccc4)nc23)C1 (stereo not drawn) -12.1%, Cc1ccc(NC2=C(c3ccc(C(F)(F)F)cc3)C(=O)c3ccccc32)cc1F -39.1%, CCOc1ccccc1NC(=O)CSc1nc2ccccc2c2nc(CCn3cncc3C)nn12 -20.2%, CCCCCC(C)N (stereo not drawn) 1.78%, O=C(NCC(c1cccnc1)N1CCc2ccccc21)c1ccccc1Br (stereo not drawn) -19.7%, CCCN(CCC)C(=O)Cn1c(=O)n(-c2cccc(C(F)(F)F)c2)c(=O)c2c(C)c(C)sc21 9.88%, O=C(Cn1c(=O)n(Cc2ccco2)c(=O)c2cccnc21)Nc1ccccc1F -6.3%, CCOc1cc(C(=O)Nc2ccc(-c3nc4cc(C)ccc4o3)cc2)cc(OCC)c1OCC -15.2%, O=C(Nc1ccc2nc(SCC(=O)N3CCCC3)sc2c1)c1ccccc1 -1.82%, O=C1[C@@H]2CSC(c3ccc(F)cc3)N2C(=O)N1c1ccc(Cl)cc1 (stereo partly drawn) -28.6%, COc1ccc(CNC(=O)c2cccc(N3CCCS3(=O)=O)c2)cc1 -14.9%, CCc1ccc(-n2c(=O)c3c4c(sc3n(Cc3ccc(F)cc3)c2=O)CCCC4)cc1 0.176%, O=C(Cn1c(=O)n2nc(-c3ccccc3)nc2c2ccccc21)Nc1ccccc1C(F)(F)F -8.96%, Nc1ncc(S(=O)(=O)NCc2cccc(Cl)c2)cn1 -11.6%, Cc1ccc2oc(=O)c3cnn(CC(=O)NCc4ccccc4Cl)c3c2c1 -8.07%, O=C(O)CCC(=O)OC[C@@H](NC(=O)C(Cl)Cl)[C@H](O)c1ccc([N+](=O)[O-])cc1 -11.6%, Cc1ccc(C)n1-c1nnc(N2CCC(C(=O)NCc3ccccc3Cl)CC2)s1 8.45%, Cc1ccc(-c2nc(CCNC(=O)C(=O)Nc3ccc(C)c(C)c3)cs2)cc1 -8.78%, COc1ccc(S(=O)(=O)N(Cc2nc(-c3ccc(C)cc3)no2)C2CCCCC2)cc1 -27.5%, COc1cc(Cl)c(C)cc1NC(=O)CCc1nc2cccnc2n1-c1ccccc1 -9.27%, CC1=C(C(=O)Nc2ccccc2)C(c2ccccc2)n2nc(-c3ccco3)nc2N1 (stereo not drawn) -5.3%, CC(=O)Nc1nnc(SCc2cc(=O)c3cc(C)ccc3[nH]2)s1 -20%, COc1ccc(NC(=O)Cn2c(SCc3cccc(Cl)c3)nc3ccncc32)c(OC)c1OC 2.26%, NC(=O)NC1N=C([O][Al])NC1=O (stereo not drawn) -1%, CCOc1ccccc1NC(=O)CCn1c(-c2ccc(OC)cc2)cc(C(C)=O)c1C -16.6%, Cc1ccc(NCc2cccn2-c2nnc(N3CCCCCC3)s2)cc1 -61.7%, CCOc1ccccc1NC(=O)C(C)Sc1cc(-c2ccccc2)nc(C)n1 (stereo not drawn) -19.7%, Cn1c(=O)cc(SCC(=O)NCc2ccc(F)cc2)c2ccc(Cl)cc21 21.5%, CCCCNC(=O)C1CCN(S(=O)(=O)c2cc(Br)cc3c2N(C(=O)CC)CC3)CC1 -2.63%, COc1ccc(-c2nnc(SCC(=O)Nc3cccc(F)c3)s2)cc1 -57.7%, CCn1cc(C(=O)O)c(=O)c2ccc(C)nc21, Nc1ncn([C@@H]2O[C@H](CO)[C@@H](O)[C@@H]2O)c(=O)n1 -28.2%, Cc1ccc(OCC(=O)Nc2c(C(=O)c3ccccc3)oc3ccccc23)cc1C 0.338%
